Laboratory results from the supplement of paper PMC3334620.
Over roughly 33,000 sequences, “E-score (-0.5 to 0.5)” has its median near -0.035; the highest 2% begin near 0.34. The list shows a part of the results.

target: T1, Mot3 (UniProt P54785); test: PBM E-score (8-mer binding enrichment) (E-score (-0.5 to 0.5)); higher = stronger / more preferred TF binding; most listed sequences are background and not binding sites; details: protein concentration: 200 nM; construct: GST-full length
T1 sequence: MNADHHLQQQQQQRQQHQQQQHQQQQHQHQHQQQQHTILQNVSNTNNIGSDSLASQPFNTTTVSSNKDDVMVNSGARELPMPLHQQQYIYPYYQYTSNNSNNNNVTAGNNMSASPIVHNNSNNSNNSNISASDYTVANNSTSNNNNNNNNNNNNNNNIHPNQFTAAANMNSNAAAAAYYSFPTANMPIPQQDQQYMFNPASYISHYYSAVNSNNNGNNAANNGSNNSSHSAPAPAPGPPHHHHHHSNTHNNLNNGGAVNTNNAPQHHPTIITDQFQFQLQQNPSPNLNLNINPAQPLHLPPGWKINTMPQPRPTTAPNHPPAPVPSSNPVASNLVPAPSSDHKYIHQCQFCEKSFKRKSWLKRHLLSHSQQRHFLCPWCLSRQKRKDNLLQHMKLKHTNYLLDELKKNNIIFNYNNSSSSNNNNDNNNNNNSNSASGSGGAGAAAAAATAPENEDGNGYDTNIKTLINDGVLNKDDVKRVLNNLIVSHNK
Summary of the method: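 Each ungapped eight-base word and its reverse complement, pooled, received an E-score from the Universal PBM Analysis Suite. Underlying scans, normalised with masliner, recorded fluorescent anti-GST bound to GST-tagged yeast transcription factors. These were applied at about 100-200 nM to universal all-10-mer Agilent arrays double-stranded by primer extension.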

Row | Sequence | PBM E-score
1 | GGACCCTA | -0.246
2 | GCTGCGGA | -0.256
3 | ACTCCATC | -0.223
4 | AGTGTCAG | -0.0679
5 | AAGTTAGG | 0.037
6 | CTTAGGGA | -0.0302
7 | ACTCGTCA | -0.0271
8 | CACACAGG | 0.14
9 | GTTCTTCA | 0.0923
10 | AAATCGTA | 0.0774
11 | ATGGCAAC | -0.0341
12 | GAATGGTA | 0.132
13 | GTGTGTGA | 0.0987
14 | AGTGTCTC | -0.201
15 | CCGTTTAA | 0.0414
16 | AATCCTCG | -0.0621
17 | ACCAGTTA | 0.103
18 | CGCTGTCA | -0.2
19 | ATATGGCA | 0.0453
20 | CACCCACG | 0.0103
21 | GCTGCCAA | -0.176
22 | GATGTTGC | 0.0102

Row | Sequence | PBM E-score
23 | ACAGACTC | -0.0283
24 | AAAGATCC | -0.115
25 | AGGTTCCG | -0.0365
26 | CTCTTTTA | -0.141
27 | CAGGGTCG | -0.185
28 | CCCGGATC | -0.207
29 | TGCACAAA | 0.0698
30 | AGCCATAC | -0.163
31 | AGTTCTTG | 0.147
32 | CACTGCAC | -0.019
33 | ATGGTAAA | 0.0184
34 | CGGAATAA | -0.00613
35 | AAGATCGT | -0.0615
36 | CTTTTTAC | 0.21
37 | TGGGTCAA | -0.13
38 | CTTTATTA | 0.146
39 | CGACGACG | -0.218
40 | CATCCGCA | -0.192
41 | AAACTTAT | 0.097
42 | AGGCAAGA | 0.477
43 | AGATCAGC | -0.207
44 | CCATTACC | -0.0695

Row | Sequence | PBM E-score
45 | ATCTCTTC | -0.041
46 | ACTCGCGC | -0.0968
47 | CGAAAATA | 0.00108
48 | GAGAGTTA | -0.0401
49 | AGGTCGCC | -0.171
50 | AGAGTAGA | 0.0558
51 | CAAACACA | 0.206
52 | CAAGCTAG | -0.0555
53 | CGCGACGA | -0.161
54 | ATGAAGCG | -0.0797
55 | ACCGGTTC | -0.148
56 | CATCTAGC | 0.111
57 | CACGTTCC | 0.179
58 | CCAATGGG | -0.321
59 | TTTCCAAA | 0.0771
60 | AGATTACG | 0.145
61 | TATAATAA | 0.164
62 | AGACCTTA | -0.167
63 | CATACGCA | 0.0643
64 | AGGACGAC | -0.177
65 | AATTTATG | 0.16
66 | CACGGCCG | -0.0243

Row | Sequence | PBM E-score
67 | GATTTTGA | 0.103
68 | ACTCATGA | -0.128
69 | ACCTCACC | -0.223
70 | TATATAAA | 0.211
71 | CATTCTCA | 0.0726
72 | GTTGATGA | 0.0844
73 | CCCACCAG | -0.193
74 | ATGAGTCA | -0.0561
75 | ATATTCAG | 0.0181
76 | GCACCCCA | -0.132
77 | ATGAATTG | 0.00768
78 | AATCAGGG | -0.271
79 | ACGGGACG | -0.0656
80 | GTCAGCGA | -0.109
81 | ACAATCGC | 0.0988
82 | ACCACGGT | -0.288
83 | CCCGTAGA | -0.221
84 | ACATGCCC | 0.21
85 | AGGTCTAA | -0.0392
86 | AAAATACT | -0.114
87 | AAATATGT | 0.268
88 | CAAGTCCG | -0.141

Row | Sequence | PBM E-score
89 | ACATCCCA | 0.0982
90 | CAATAGAC | 0.0878
91 | ATCCCTAC | -0.106
92 | GAGAGGGA | -0.318
93 | CCGTTAGG | -0.0906
94 | AGGCCAAT | 0.0294
95 | AGCTAACA | 0.101
96 | GAGAAGCA | -0.0664
97 | CTAATAAA | 0.174
98 | AGGCGAAC | -0.0626
99 | GACGCCCA | -0.158
100 | AACTAAGG | 0.0319
101 | CGACCCTC | -0.169
102 | GGCTTTGA | -0.144
103 | AAGGCGTG | 0.0526
104 | TGTGAACA | 0.215
105 | CCAGCCCC | -0.119
106 | TGGTCAAA | 0.0371
107 | AATTATGG | -0.0152
108 | CATCGTAC | -0.0204
109 | GTCGACAC | 0.193
